Sequences with one replicate were seen in a single cluster, so their values are uncertain.
These sequences were tested on ATP (assay: switch fluorescence ratio, 500 uM ATP over buffer (Cy3 cluster intensity, sum of 5 cycles each) (fold (ratio)); higher = stronger signal-on switching upon ATP binding; sequences stand for … in TCGTCGGCAGCGTCAGATGTGTATAAGAGACAGTTTTTTTTTTTTTTTTTTTTTTTTT…TC). Conditions: aptamer strand: ATP DNA aptamer (quencher-CACCTGGGGGAGTATTGCGGAGGAAGG + anchor), 100 nM annealed; ATP concentration: 500 uM; one replicate.
Outline: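 Cy3-labelled switching-strand clusters on a modified Illumina MiSeq flow-cell were annealed to 100 nM quencher-labelled ATP aptamer, imaged in selection buffer, then imaged after 15 min with 500 uM ATP at 22 °C. Five buffer/ATP cycles ran, with NaOH stripping and re-annealing between them. The fluorescence ratio is summed target-cycle over summed buffer-cycle Cy3 intensity per cluster, averaged per switch-domain sequence. Clusters outside 100-1000 RFU were excluded.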
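Note: ATP exposure 15 min at 22 °C before imaging.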

| Sequence | switch fluorescence ratio |
| --- | --- |
| TTTATGATGT | 1.01 |
| TTTATGCTA | 0.992 |
| TTTATTCCAT | 1.02 |
| TTTATTGGGT | 1.01 |
| TTTATTTGT | 0.989 |
| TTTATTTGTG | 1.03 |
| TTTCAAAATA | 0.995 |
| TTTCAACCCG | 0.961 |
| TTTCAACTTC | 1.01 |
| TTTCAAGAAC | 0.943 |
| TTTCACGCCG | 1.05 |
| TTTCACGGTC | 0.985 |
| TTTCAGAATT | 1.03 |
| TTTCAGTAGT | 0.986 |
| TTTCAGTATC | 1.03 |
| TTTCATCGTT | 1 |
| TTTCATCTGC | 0.944 |
| TTTCATGTGT | 1.02 |
| TTTCCAAACC | 1.33 |
| TTTCCAAATC | 0.967 |
| TTTCCAGCTA | 1.09 |
| TTTCCATCGA | 1.14 |
| TTTCCCACCG | 1.44 |
| TTTCCCCCTG | 1.58 |

| Sequence | switch fluorescence ratio |
| --- | --- |
| TTTCCCGCC | 1.25 |
| TTTCCGATCT | 1.08 |
| TTTCCTAGG | 0.988 |
| TTTCGAATGC | 1.01 |
| TTTCGATTCA | 1.02 |
| TTTCGCAC | 2.08 |
| TTTCGGACGA | 1.04 |
| TTTCGGCTT | 0.976 |
| TTTCGGGTGA | 1.35 |
| TTTCGTGCAA | 1.9 |
| TTTCGTTCGG | 0.992 |
| TTTCTAGGCC | 0.962 |
| TTTCTATCTT | 0.978 |
| TTTCTGTGTG | 0.989 |
| TTTCTTAAAT | 1.01 |
| TTTCTTCAAC | 1.14 |
| TTTCTTCGAC | 1.08 |
| TTTCTTCGGA | 1.07 |
| TTTCTTGACT | 1.01 |
| TTTCTTGAGA | 1.01 |
| TTTCTTTTT | 0.937 |
| TTTGAAAGAG | 0.971 |
| TTTGAACGCG | 1 |
| TTTGAAGGTT | 1.49 |

| Sequence | switch fluorescence ratio |
| --- | --- |
| TTTGACATAG | 1.02 |
| TTTGACATAT | 0.994 |
| TTTGACCGC | 1.09 |
| TTTGACCTT | 1.27 |
| TTTGAGCAAA | 2.78 |
| TTTGATAGCT | 0.977 |
| TTTGATCTCA | 0.972 |
| TTTGCAAGAC | 3.88 |
| TTTGCACTCG | 0.995 |
| TTTGCCGGA | 0.954 |
| TTTGCGGTGT | 1.06 |
| TTTGCGTCCA | 1.01 |
| TTTGCGTTGA | 1.04 |
| TTTGCTACTT | 1.07 |
| TTTGCTCAT | 0.955 |
| TTTGCTTTCG | 0.996 |
| TTTGGACCAT | 1.01 |
| TTTGGCAGGA | 1.02 |
| TTTGGCCAC | 1.01 |
| TTTGGGAGCC | 1.01 |
| TTTGGGAGCG | 1.02 |
| TTTGGGGCC | 0.986 |
| TTTGGTCAA | 0.994 |
| TTTGGTTTCT | 1 |

| Sequence | switch fluorescence ratio |
| --- | --- |
| TTTGTAACTC | 0.99 |
| TTTGTAATGC | 1.45 |
| TTTGTACAG | 1.02 |
| TTTGTAGTAC | 3.36 |
| TTTGTCCTGT | 1.01 |
| TTTGTCTCAG | 1 |
| TTTGTCTCGC | 0.991 |
| TTTGTCTTTA | 1 |
| TTTGTGAATG | 0.979 |
| TTTGTGACTC | 1.02 |
| TTTGTGCTAC | 1.45 |
| TTTGTGTAAC | 0.989 |
| TTTGTGTTA | 0.98 |
| TTTGTTCCGA | 1.03 |
| TTTGTTTATT | 1.02 |
| TTTTAAGGGC | 1.01 |
| TTTTAATAG | 0.985 |
| TTTTACAGA | 0.978 |
| TTTTACGTGT | 1.04 |
| TTTTAGCCAA | 0.978 |
| TTTTATTCAT | 1.02 |
| TTTTCACATT | 1.01 |
| TTTTCACTAA | 1.01 |
| TTTTCAGTAA | 1.18 |

| Sequence | switch fluorescence ratio |
| --- | --- |
| TTTTCCAATT | 1.1 |
| TTTTCCCCAC | 2.16 |
| TTTTCCGAGC | 1.22 |
| TTTTCCGCAG | 5.13 |
| TTTTCCTCAA | 1.11 |
| TTTTCGACAT | 1.01 |
| TTTTCGGCAT | 1.31 |
| TTTTCGGCGG | 1.02 |
| TTTTCGTAC | 1.06 |
| TTTTCGTGTC | 1 |
| TTTTCGTTTA | 1.05 |
| TTTTCTAGGA | 0.982 |
| TTTTCTCTGA | 1.01 |
| TTTTCTGGG | 1 |
| TTTTGAAGAA | 1.05 |
| TTTTGAATAG | 0.972 |
| TTTTGACG | 1.07 |
| TTTTGACGGC | 1.15 |
| TTTTGAGCGT | 0.989 |
| TTTTGATTGG | 1.05 |
| TTTTGCACGT | 1.01 |
| TTTTGCGTAG | 1.05 |
| TTTTGCGTG | 0.992 |
| TTTTGGACCG | 1.21 |

| Sequence | switch fluorescence ratio |
| --- | --- |
| TTTTGGACGT | 0.975 |
| TTTTGGGAGA | 1.02 |
| TTTTGGTGAC | 1.06 |
| TTTTGTGTAG | 1.06 |
| TTTTGTTCTC | 0.965 |
| TTTTTAACG | 0.975 |
| TTTTTAATA | 1.03 |
| TTTTTAGCCT | 0.977 |
| TTTTTCCGG | 0.953 |
| TTTTTCGCGC | 1.08 |
| TTTTTCTCTA | 1.01 |
| TTTTTCTGCC | 0.97 |
| TTTTTCTTGA | 0.986 |
| TTTTTCTTGG | 1 |
| TTTTTCTTTA | 1 |
| TTTTTGTTCA | 0.997 |
| TTTTTTACAC | 1.05 |
| TTTTTTCCTA | 1.06 |
| TTTTTTGTA | 1.03 |
| TTTTTTTAC | 1.01 |

From the supplement of paper PMC10126150
